PubChem BioAssay AID686978 (National Center for Advancing Translational Sciences (NCATS), 2013)
Screen size: about 420,000 compounds; about 64,000 (15%) were called active. Inconclusive means that the source gave no clear call. Such entries were picked first, then a sample of the others. Calls follow the shape of the dose curve; as a rule, active = well fitted inhibition curve with a large enough effect; inconclusive = small, poorly fitted or top-dose-only effect; inactive = flat fitted curve, though single readings scatter. Potencies of inconclusive entries are left out as doubtful fits.

Experiment: qHTS for Inhibitors of human tyrosyl-DNA phosphodiesterase 1 (TDP1): qHTS in cells in absence of CPT; also: nearly all actives have a fitted effect of over 55% in size
Conditions: DT40 Tdp1-/- hTDP1 cells, no CPT, ATP luminescence, 48 h; activity change, negative = growth inhibition: at 46.2 µM (top of the series) unless noted
How it was run: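 Cells were dispensed at 400 per well, compounds added by pin tool, plates incubated ≥48 hr at 37 °C, then CellTiter-Glo added for 30 min at room temperature before luminescence reading. Line: DT40 Tdp1-/- complemented with hTDP1; camptothecin omitted.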
% is scaled to controls: 0 for no effect and ±100 for the full control effect; potency is read from the fitted curve at half-maximal effect; tags tell the direction and shape of the fitted curve.

SMILES	Potency	activity change, negative = growth inhibition
COc1cccc(C(=O)Nc2ccccc2-c2nnc(-c3ccc(C(C)(C)C)cc3)o2)c1	inconclusive [inhibitor, partial curve]	
COc1ccc(S(=O)(=O)N2CCCC(C(=O)NCc3ccncc3)C2)cc1 (stereo not drawn)	inconclusive [inhibitor, partial curve]	
CCCCn1c(SCC(=O)c2ccccc2)nc2c1c(=O)[nH]c(=O)n2C	inconclusive [inhibitor, partial curve]	
CCO[C@@H]1OC(C(=O)N2CCCCCCC2)=C[C@H](c2ccc3c(c2)OCO3)[C@H]1CCCO	inconclusive [inhibitor, single point]	
CCOC(=O)C1CN(S(=O)(=O)c2ccc(OC)cc2)c2ccccc2O1 (stereo not drawn)	inactive	
CCCCN(CC)CCNC(=O)c1cc2c(=O)n(C)c3ccccc3c2s1	active: 23.1 µM	
Oc1c(N=NC(=S)Nc2ccccc2F)c2ccccc2n1Cc1ccccc1Cl	active: 5.8 µM	
CCOc1ccc(-c2cc(CCCC(=O)NCCc3ccc(OCC)c(OCC)c3)no2)cc1		inconclusive: -33.9% [inhibitor]
Cc1ccc(S(=O)(=O)Nc2ccc(NC(=O)c3c(F)c(F)c(F)c(F)c3F)cc2)cc1	inconclusive [inhibitor, single point]	
CCc1ccc([C@H]2C(C(=O)O)=C[C@@H](CC)N2S(=O)(=O)c2ccc(C)cc2)cc1	inconclusive [inhibitor, single point]	
Cc1ccc(NC(=O)Nc2ccc3nc(N4CCN(C)CC4)cc(C)c3c2)cc1C	active: 4.61 µM	
Cc1ccc(-n2nnnc2-c2cnn(-c3cccc(F)c3)c2C(F)(F)F)cc1	inactive	
CN(C)c1nccc(N(Cc2ccccc2)Cc2ccccc2)c1C#N	active: 29.1 µM	
COc1cc(NC(=O)C2CC(c3ccccc3Cl)=NO2)cc(OC)c1OC (stereo not drawn)	active: 23.1 µM	
CCSc1ccc(-c2cc(NC=O)c3ncc(-c4cccc(C(=O)NCCN(C)C)c4)n3c2)cc1	active: 3.26 µM	
CCCOc1ccc(-c2c(=O)n(OCC(=O)OCC)c3ccccc3[n+]2[O-])cc1	inactive	
Cc1ccc(CC(=S)N2CCOCC2)cc1	inactive	
Cc1sc(NC(=O)C2=COCCO2)c(C(N)=O)c1C	inactive	
O=C(CCNC(=O)c1ccco1)Nc1cccc(Br)c1	inactive	
Cc1ccc(-n2c(SCC(=O)N3CCCCC3)nc(O)c(Cc3ccccc3)c2=O)cc1	active: 11.6 µM	
CCN1CCN(C(=O)c2ccc3c(c2)N(Cc2ccccc2F)C(=O)c2ccccc2S3(=O)=O)CC1	inconclusive [inhibitor, single point]	
O=C(NC1CCCc2ccccc21)c1cc(F)cc(F)c1 (stereo not drawn)	inconclusive [inhibitor, partial curve]	
CCOC(=O)c1cccc(NC(=O)N2CC(CC)Oc3ccccc32)c1 (stereo not drawn)	active: 16.4 µM	
COC(CNC(=O)CCCn1nnnc1CN1CCOCC1)c1cccs1 (stereo not drawn)	inactive	
COc1ccc(NC(=O)c2sc3nc4c(cc3c2N)CCCCCC4)cc1Cl	inconclusive [inhibitor, full curve, poor fit]	

SMILES	Potency	activity change, negative = growth inhibition
COc1cc(NS(=O)(=O)c2ccc(NC(=O)c3ccc(C(C)=O)cc3)cc2)nc(OC)n1	inactive	
CC/C(C)=N\N=C\c1c(O)n(CC)c2cc(C3=NNC(=O)CC3)ccc12	active: 6.51 µM	
CC(=O)/C(=C\Nc1ccc(OCc2ccccc2)cc1)c1ccccc1	active: 29.1 µM	
O=C(NCCCN1CCN(Cc2ccccc2)CC1)C1CCN(S(=O)(=O)N2CCCC2)CC1	inconclusive [inhibitor, single point]	
COCCN(C(=O)CC(C)(C)C)c1nnc(-c2cccnc2)s1	inconclusive [inhibitor, single point]	
COc1cccc(NS(=O)(=O)c2ccc(Br)s2)c1	inactive	
c1ccc(-c2cn(-c3ccccc3)c3[n+]2CCCS3)cc1	active: 3.66 µM	
O=c1c([N+](=O)[O-])c(N2CCOCC2)c2ccccc2n1-c1ccccc1	inactive	
CCN1C(=O)[C@@H]2[C@H](C1=O)[C@@H]1C(=O)Nc3ccccc3C(=O)N1[C@@H]2c1ccc(OC)cc1	inactive	
O=C(c1ccc(-n2c(SCc3cc(F)ccc3F)nc3ccccc3c2=O)cc1)N1CCOCC1	active: 25.9 µM	
O=C(Cc1sc(-c2ccccc2Cl)nc1-c1ccccc1)Nc1ccc(F)cc1	inconclusive [inhibitor, partial curve]	
CCn1c(Oc2ccc(F)cc2)nc2c1c(=O)n(C)c(=O)n2C	inactive	
NC(=O)c1ccc(-c2ccc(N3C(c4ccsc4)=Cc4ccc(F)cc4C3CC(=O)c3ccco3)cc2)cc1 (stereo not drawn)	inconclusive [inhibitor, single point]	
CC(C)C(=O)NNC(=O)c1ccccn1	inconclusive [inhibitor, single point]	
COCCNc1cc(C)c(C#N)c2nc3ccccc3n12	inconclusive [inhibitor, single point]	
CC[C@]12c3[nH]c4ccc(Cl)cc4c3CCN1C(=O)[C@@H](CC(=O)NCC13CC4CC(CC(C4)C1)C3)C[C@@H]2C(=O)N1CCN(C(=O)C2CC2)CC1	active: 3.26 µM	
CC(=O)c1ccc(N2CCN(C(=O)CCC(=O)c3cccs3)CC2)cc1	inactive	
COc1ccccc1C1SCCN1S(C)(=O)=O (stereo not drawn)	inactive	
CCN(CCC(=O)Nc1ccc(Br)c(C)c1)Cc1ccccc1	active: 29.1 µM	
Cc1ccc(C(=O)N2CCN(c3ccc(C(F)(F)F)cn3)CC2)o1	inconclusive [inhibitor, single point]	
COC(C[C@@H](O)C[C@H](O)[C@H](C)OCc1ccccc1)OC	inactive	
Cc1cccc(NC(=O)CN2CCC(NC(=O)C3CCCCC3)CC2)c1C	inconclusive [inhibitor, partial curve]	
CCCCCCC(=O)N1CCC(c2nc3c(nnn3Cc3ccccc3Cl)c(=O)[nH]2)CC1	inconclusive [inhibitor, single point]	
Cc1noc(C)c1C(=O)OCC(=O)Nc1ncc(Cl)c(C)c1Cl	inactive	
CCc1cc(-c2n[nH]c(=S)n2CC(C)C)cs1	inconclusive [inhibitor, partial curve]	

SMILES	Potency	activity change, negative = growth inhibition
CN(C)CCCNc1nc2cc(-c3ccsc3)sc2c(=O)n1C	inconclusive [inhibitor, single point]	
CCN(CC)CCNC(=O)C(Oc1ccccc1)Oc1ccccc1	inactive	
COCCNC(=O)c1cn(C(C)c2ccccc2F)nn1 (stereo not drawn)	inactive	
OC(Cc1ccc2ccccc2n1)c1ccccc1 (stereo not drawn)	inconclusive [inhibitor, single point]	
O=[N+]([O-])c1ccc(Cl)cc1N/N=C/c1ccncc1	inactive	
Fc1cccc(CCN2C(=S)NC[C@@H]2CC2CCCCC2)c1	inconclusive [inhibitor, single point]	
NC(COCc1ccccc1)c1csc(Nc2ccccn2)n1 (stereo not drawn)	inconclusive [inhibitor, single point]	
Cc1ccc(C)c(N(C)C(=O)COc2cc(=O)n(C)c3ccccc23)c1		inconclusive: -31.7% [inhibitor]
COc1cc(/C=C/C(=O)OCC(=O)N(CC(C)C)c2c(N)n(Cc3ccccc3)c(=O)[nH]c2=O)ccc1O	inconclusive [inhibitor, single point]	
Cc1cccc(-n2ncc(C(=O)NCc3ccco3)c2C2CCN(C(=O)OC(C)(C)C)CC2)c1	inconclusive [inhibitor, single point]	
CCOC(=O)c1ccc(N2CN(CCc3ccccc3)CNC2=S)cc1	inconclusive [inhibitor, single point]	
CCOC(=O)c1c(C)[nH]c(C(=O)C(C)Cl)c1C (stereo not drawn)	inconclusive [inhibitor, single point]	
Cc1cccc(CNC(=O)CCCN2C(=O)COc3ccc(C)cc32)c1	inconclusive [inhibitor, partial curve]	
CCCCN(C)C(=O)C(Cc1ccccc1)NS(=O)(=O)c1ccc2c(c1)CCC(=O)N2 (stereo not drawn)	inactive	
CCNC(=O)C1(C)CCN(Cc2ccc(-c3ccccc3)cc2)C1 (stereo not drawn)	active: 20.6 µM	
COc1ccc(NC(=O)C(C2CC2)n2c(=O)c(-c3ccco3)nc3ccccc32)cc1 (stereo not drawn)	inconclusive [inhibitor, partial curve, poor fit]	
CNC(=O)c1cc2c(s1)CCCCCC2	inactive	
O=C(Nc1cccc(S(=O)(=O)N2CCOCC2)c1)C(c1ccccc1)N1CCCCC1 (stereo not drawn)	inconclusive [inhibitor, single point]	
Cc1ccc(S(=O)(=O)CCc2nc3ccccc3n2CCC#N)cc1	inconclusive [inhibitor, single point]	
CC(CC(=O)c1ccccc1)=NCCCN=C(C)CC(=O)c1ccccc1	inconclusive [inhibitor, single point]	
Cc1n[nH]c(C)c1CCCCOc1ccccc1	inconclusive [inhibitor, single point]	
CC1CCCCN1S(=O)(=O)c1ccc2[nH]c(=O)cc(C(=O)NCCc3ccc(Cl)cc3)c2c1 (stereo not drawn)	inconclusive [inhibitor, single point]	
CCc1ccccc1NC(=O)/C(C#N)=C\c1ccc(Sc2ccccc2)o1	inconclusive [inhibitor, partial curve, poor fit]	
